Measurements published in the supplement of paper PMC10338343.
± gives the standard deviation. The entries are a selection whose mix differs from that of the whole data set.

The sequences below were run on MIWI (PIWIL1) piRISC loaded with L1MC piRNA (30 nt) (assay: pre-steady-state target cleavage rate (min^-1); MIWI and MILI are mouse PIWI proteins and EfPiwi is from a freshwater sponge; tags in brackets are library labels; higher = faster piRNA-guided slicing of the target). Conditions: guide: L1MC piRNA 5'p-UAACUAAAUACUAUGCAAGCUGUAGGUCCU; auxiliary factor: 500 nM mouse GTSF1.
In short: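 Using HEPES–potassium acetate buffer at 33 °C, 1 nM active affinity-purified piRISC with a single synthetic guide was mixed with 0.1 nM transcribed, DNA-blocked target RNA library for 0–8 or 0–960 min, with or without 500 nM GTSF1 partner protein. Uncleaved targets were sequenced and normalised to depth and to weakly complementary targets, and three trials were pooled with k3 capped at 0.0001 min^-1. A burst-and-steady-state fit gave the pre-steady-state cleavage rate.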

Sequence | pre-steady-state target cleavage rate
UCGACCUACAGCUUGCAUAGUUUUUAGAUA | 0.206 ± 0.023
UCCUGGAACGGCUUGCAUAGUAUUUAGUUA | 0.897 ± 0.044
UCCACCUACACCUUGCAUAGAAUUUAGUUA | 0.337 ± 0.066
UCCUGGUACAGCUUGCAUGUAUUUAGUUA | 0.14 ± 0.015
UCCUGGAUGAGCUUGCAUAGUAUUCUAGUUA | 0.28 ± 0.036
UCCUGGAACAGCUAGCAUAGUAUAUAGUUA | 0.422 ± 0.04
UCCUCCUACAGCUUGCAAAGAAUUUAGUUA | 0.223 ± 0.029
UCCACCUACAGCUUGCAUAGUAUUUUCUUA | 0.385 ± 0.053
UCCUGGUUCAGCUUGCAUAGAAUUUAGUUA | 0.147 ± 0.032
UCCUCCUACAGCUUGCAUAGUUAUUAGUUA | 0.182 ± 0.018
UCCUGGUACAGCUUGCAUAGUAUUUAGUGUA | 0.338 ± 0.035
UCCUGGAUGAGCUUGCAUAGUAUAUUAGUUA | 0.464 ± 0.04
UCCUGGAUGAGCUUGCAUAGUAUUUAUGUUA | 0.273 ± 0.042
UCCUGGUACAGCUUGCAUAGUAUUUAGUAUA | 0.473 ± 0.052
UCCUGGUACAGCUUGCAUAGUAUUUUAGUUA | 0.549 ± 0.06
UCCUGGAUGAGUCUUGCAUAGUAUUUAGUUA | 0.255 ± 0.022
AGGACCUACAGCUUGCAUAGUAUUUUCUAA | 0.295 ± 0.035
AGGACCUACAGCUUGCAUAGUAUAAUGUUA | 0.437 ± 0.051
UCCUGCUACAGCUAGCAUAGUAUUUACUUA | 0.621 ± 0.083
AGGACCUACAGCAUGCAUAGUAUUUAGUAA | 0.986 ± 0.075
UCCUGGAUGUGGCUUGCAUAGUAUUUAGUUA | 0.815 ± 0.049
UCCUGGAUGAGCUUGCAUAGUUUUUAGUUA | 0.175 ± 0.017
AGGAGGUACAGCUUGCAUAGUAUUUACAAA | 0.277 ± 0.056
UCGACCUACAGCUUGCAUAGUAAUUAGUAA | 0.594 ± 0.044
